Assay [1] concerns the target T1, T7-DHX34 (wild-type) (human, UniProt Q14147 1-1143).
T1 construct: Human DHX34, wild type; also called T7-tagged DHX34; shRNA-resistant (R) wild-type T7-DHX34; source: HEK293T, transiently transfected, in lysate; also purified on T7 agarose beads
T1 sequence (looked up): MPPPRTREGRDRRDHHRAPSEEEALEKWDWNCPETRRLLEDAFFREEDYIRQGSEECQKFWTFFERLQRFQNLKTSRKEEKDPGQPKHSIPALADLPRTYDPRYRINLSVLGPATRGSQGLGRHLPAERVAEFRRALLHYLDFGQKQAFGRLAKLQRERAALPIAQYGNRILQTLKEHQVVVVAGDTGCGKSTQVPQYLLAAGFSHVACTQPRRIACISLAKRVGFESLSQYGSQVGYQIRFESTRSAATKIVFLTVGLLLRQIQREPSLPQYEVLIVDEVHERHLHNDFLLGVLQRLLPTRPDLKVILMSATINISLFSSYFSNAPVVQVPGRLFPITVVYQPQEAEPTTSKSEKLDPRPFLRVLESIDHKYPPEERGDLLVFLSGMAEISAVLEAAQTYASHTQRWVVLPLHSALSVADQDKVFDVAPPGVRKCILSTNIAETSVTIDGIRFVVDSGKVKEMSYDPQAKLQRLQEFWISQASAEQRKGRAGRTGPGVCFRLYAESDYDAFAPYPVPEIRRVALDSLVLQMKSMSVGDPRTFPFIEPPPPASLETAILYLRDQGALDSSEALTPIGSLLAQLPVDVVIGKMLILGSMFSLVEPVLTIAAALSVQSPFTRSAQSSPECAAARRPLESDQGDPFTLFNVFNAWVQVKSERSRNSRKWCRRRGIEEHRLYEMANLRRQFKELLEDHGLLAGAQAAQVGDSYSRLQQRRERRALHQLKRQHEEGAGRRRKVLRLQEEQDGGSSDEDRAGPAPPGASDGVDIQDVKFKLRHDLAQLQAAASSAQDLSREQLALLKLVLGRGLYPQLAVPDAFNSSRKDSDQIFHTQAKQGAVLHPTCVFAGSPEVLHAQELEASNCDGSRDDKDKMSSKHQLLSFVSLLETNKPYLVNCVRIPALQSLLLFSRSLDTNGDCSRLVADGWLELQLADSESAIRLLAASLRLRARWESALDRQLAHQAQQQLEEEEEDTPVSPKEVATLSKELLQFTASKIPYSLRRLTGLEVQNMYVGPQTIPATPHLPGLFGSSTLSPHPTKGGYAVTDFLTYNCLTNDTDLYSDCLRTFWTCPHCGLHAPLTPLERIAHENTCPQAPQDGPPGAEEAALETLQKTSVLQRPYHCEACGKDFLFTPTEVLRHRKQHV
Description: pull-down; purified T7-DHX34 (wild-type or deletion constructs) on T7 agarose beads incubated with recombinant UPF1, UPF2, UPF3b or purified full-length FLAG-UPF1 in buffer D for 2 hr at 4°C; both purified.

The target in a further assay is T2, FLAG-DHX34 (human) (UniProt Q14147).
T2 sequence: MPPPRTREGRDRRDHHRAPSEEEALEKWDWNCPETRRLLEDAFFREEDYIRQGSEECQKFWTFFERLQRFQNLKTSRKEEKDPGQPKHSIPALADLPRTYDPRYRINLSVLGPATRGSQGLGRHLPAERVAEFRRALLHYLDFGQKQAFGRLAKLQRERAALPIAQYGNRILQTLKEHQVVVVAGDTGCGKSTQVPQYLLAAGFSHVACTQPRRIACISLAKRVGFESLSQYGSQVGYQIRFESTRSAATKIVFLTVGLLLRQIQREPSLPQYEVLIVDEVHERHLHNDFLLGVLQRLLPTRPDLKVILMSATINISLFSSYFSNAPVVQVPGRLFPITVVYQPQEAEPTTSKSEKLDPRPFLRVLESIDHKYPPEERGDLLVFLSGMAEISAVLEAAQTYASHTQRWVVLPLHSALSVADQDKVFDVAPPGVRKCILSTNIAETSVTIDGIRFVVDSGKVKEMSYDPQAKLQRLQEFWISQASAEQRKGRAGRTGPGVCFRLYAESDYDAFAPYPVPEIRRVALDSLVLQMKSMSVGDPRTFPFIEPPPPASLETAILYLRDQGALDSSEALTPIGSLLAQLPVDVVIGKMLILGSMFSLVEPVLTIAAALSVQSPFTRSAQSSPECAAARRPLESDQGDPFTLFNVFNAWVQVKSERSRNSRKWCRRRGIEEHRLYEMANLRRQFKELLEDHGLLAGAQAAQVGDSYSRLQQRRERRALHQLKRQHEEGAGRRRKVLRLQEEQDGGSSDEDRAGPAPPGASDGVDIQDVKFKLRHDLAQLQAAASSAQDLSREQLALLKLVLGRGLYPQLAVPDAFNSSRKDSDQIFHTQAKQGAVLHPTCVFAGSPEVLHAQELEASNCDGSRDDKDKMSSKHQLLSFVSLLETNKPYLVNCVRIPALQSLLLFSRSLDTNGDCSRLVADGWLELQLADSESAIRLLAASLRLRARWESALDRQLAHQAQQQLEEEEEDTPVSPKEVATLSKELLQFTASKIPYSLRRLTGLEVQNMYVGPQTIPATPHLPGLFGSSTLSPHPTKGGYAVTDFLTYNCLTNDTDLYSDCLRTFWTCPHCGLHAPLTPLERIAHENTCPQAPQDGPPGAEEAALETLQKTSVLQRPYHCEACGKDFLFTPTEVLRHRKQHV
As to the kind of experiment: co-IP; anti-FLAG IP of transiently transfected FLAG-DHX34 from HEK293T lysate, in the absence or presence of RNase A; endogenous partners by western blot. Background: A western blot detects proteins with antibodies after separation by electrophoresis.

In assay [2] the target is T3, endogenous DHX34 (human (endogenous in HEK293T)) (UniProt Q14147).
T3 sequence: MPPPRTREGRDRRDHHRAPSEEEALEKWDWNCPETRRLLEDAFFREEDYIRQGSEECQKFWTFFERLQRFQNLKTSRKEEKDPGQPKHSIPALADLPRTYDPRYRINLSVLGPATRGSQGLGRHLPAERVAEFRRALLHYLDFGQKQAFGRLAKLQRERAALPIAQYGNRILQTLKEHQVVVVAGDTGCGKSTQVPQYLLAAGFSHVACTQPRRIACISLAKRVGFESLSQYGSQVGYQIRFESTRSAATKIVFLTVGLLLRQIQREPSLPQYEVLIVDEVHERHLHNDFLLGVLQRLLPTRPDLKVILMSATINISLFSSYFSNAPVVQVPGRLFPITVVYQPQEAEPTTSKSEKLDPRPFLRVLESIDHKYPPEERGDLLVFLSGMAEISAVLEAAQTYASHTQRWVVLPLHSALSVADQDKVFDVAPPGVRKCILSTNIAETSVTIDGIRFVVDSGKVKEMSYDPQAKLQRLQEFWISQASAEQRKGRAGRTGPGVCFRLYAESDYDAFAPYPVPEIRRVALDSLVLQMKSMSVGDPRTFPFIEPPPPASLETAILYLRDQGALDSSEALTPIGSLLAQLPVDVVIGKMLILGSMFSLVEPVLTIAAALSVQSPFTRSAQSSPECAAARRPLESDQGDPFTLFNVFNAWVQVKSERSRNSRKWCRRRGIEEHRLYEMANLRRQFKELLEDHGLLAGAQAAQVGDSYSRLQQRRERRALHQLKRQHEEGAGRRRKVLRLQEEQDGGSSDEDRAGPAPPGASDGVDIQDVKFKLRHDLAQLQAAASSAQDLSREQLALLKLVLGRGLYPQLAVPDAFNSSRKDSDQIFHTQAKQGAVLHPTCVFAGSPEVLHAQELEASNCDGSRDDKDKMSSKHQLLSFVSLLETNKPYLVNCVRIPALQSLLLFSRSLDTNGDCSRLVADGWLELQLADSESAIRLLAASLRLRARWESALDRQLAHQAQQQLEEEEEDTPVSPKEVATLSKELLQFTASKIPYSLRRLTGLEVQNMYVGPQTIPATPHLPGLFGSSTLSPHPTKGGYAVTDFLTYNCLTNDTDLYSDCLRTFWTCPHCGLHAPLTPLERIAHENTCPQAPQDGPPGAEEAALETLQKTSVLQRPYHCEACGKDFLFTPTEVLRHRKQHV
As to the kind of experiment: co-IP; endogenous proteins immunoprecipitated from HEK293T cells (Figure S2C; endogenous UPF1 complexes from cells depleted of DHX34 or control, Figure 5D).

For assay [3], the target named is T1, T7-DHX34 (wild-type). As to the kind of experiment: co-IP; IP of transiently transfected T7-DHX34 (wild-type or mutants) from HEK293T lysate, in the presence of RNase A (Figure 3B); endogenous partners by western blot.

No constants are given. Whether binding was seen depends on the method and setting. For some of these results: Binding seen in cells or lysates may run through a third protein. Some binding calls cover weakened binding; strength is not graded here. For some of these results: Sequences can lack the tags named with a protein.

We go through two molecules from paper PMC4534575, “The RNA Helicase DHX34 Activates NMD by Promoting a Transition from the Surveillance to the Decay-Inducing Complex” (Cell Reports, 2014).

B1: recombinant UPF3b (protein, UniProt Q9BZI7 1-483)
chain: MKEEKEHRPKEKRVTLLTPAGATGSGGGTSGDSSKGEDKQDRNKEKKEALSKVVIRRLPPTLTKEQLQEHLQPMPEHDYFEFFSNDTSLYPHMYARAYINFKNQEDIILFRDRFDGYVFLDNKGQEYPAIVEFAPFQKAAKKKTKKRDTKVGTIDDDPEYRKFLESYATDNEKMTSTPETLLEEIEAKNRELIAKKTTPLLSFLKNKQRMREEKREERRRREIERKRQREEERRKWKEEEKRKRKDIEKLKKIDRIPERDKLKDEPKIKVHRFLLQAVNQKNLLKKPEKGDEKELDKREKAKKLDKENLSDERASGQSCTLPKRSDSELKDEKPKRPEDESGRDYREREREYERDQERILRERERLKRQEEERRRQKERYEKEKTFKRKEEEMKKEKDTLRDKGKKAESTESIGSSEKTEKKEEVVKRDRIRNKDRPAMQLYQPGARSRNRLCPPDDSTKSGDSAAERKQESGISHRKEGGEE
For B1, the binding entry with T7-DHX34 (wild-type) [1] is “binds weakly”.

B2: endogenous UPF1 (protein, UniProt Q92900 1-1129)
chain: MSVEAYGPSSQTLTFLDTEEAELLGADTQGSEFEFTDFTLPSQTQTPPGGPGGPGGGGAGGPGGAGAGAAAGQLDAQVGPEGILQNGAVDDSVAKTSQLLAELNFEEDEEDTYYTKDLPIHACSYCGIHDPACVVYCNTSKKWFCNGRGNTSGSHIVNHLVRAKCKEVTLHKDGPLGETVLECYNCGCRNVFLLGFIPAKADSVVVLLCRQPCASQSSLKDINWDSSQWQPLIQDRCFLSWLVKIPSEQEQLRARQITAQQINKLEELWKENPSATLEDLEKPGVDEEPQHVLLRYEDAYQYQNIFGPLVKLEADYDKKLKESQTQDNITVRWDLGLNKKRIAYFTLPKTDSGNEDLVIIWLRDMRLMQGDEICLRYKGDLAPLWKGIGHVIKVPDNYGDEIAIELRSSVGAPVEVTHNFQVDFVWKSTSFDRMQSALKTFAVDETSVSGYIYHKLLGHEVEDVIIKCQLPKRFTAQGLPDLNHSQVYAVKTVLQRPLSLIQGPPGTGKTVTSATIVYHLARQGNGPVLVCAPSNIAVDQLTEKIHQTGLKVVRLCAKSREAIDSPVSFLALHNQIRNMDSMPELQKLQQLKDETGELSSADEKRYRALKRTAERELLMNADVICCTCVGAGDPRLAKMQFRSILIDESTQATEPECMVPVVLGAKQLILVGDHCQLGPVVMCKKAAKAGLSQSLFERLVVLGIRPIRLQVQYRMHPALSAFPSNIFYEGSLQNGVTAADRVKKGFDFQWPQPDKPMFFYVTQGQEEIASSGTSYLNRTEAANVEKITTKLLKAGAKPDQIGIITPYEGQRSYLVQYMQFSGSLHTKLYQEVEIASVDAFQGREKDFIILSCVRANEHQGIGFLNDPRRLNVALTRARYGVIIVGNPKALSKQPLWNHLLNYYKEQKVLVEGPLNNLRESLMQFSKPRKLVNTINPGARFMTTAMYDAREAIIPGSVYDRSSQGRPSSMYFQTHDQIGMISAGPSHVAAMNIPIPFNLVMPPMPPPGYFGQANGPAAGRGTPKGKTGRGGRQKNRFGLPGPSQTNLPNSQASQDVASQPFSQGALTQGYISMSQPSQMSQPGLSQPELSQDSYLGDEFKSQIDVALSQDSTYQGERAYQHGGVTGLSQY
As to B2, the binding entry (with FLAG-DHX34 (human); in assay [2]; in the assay with T7-DHX34 (wild-type) [3]) was “binds” throughout.
